# Test results from PubChem BioAssay AID504832 (National Center for Advancing Translational Sciences (NCATS), 2011).
# The whole screen tested about 310,000 compounds, of which about 18,000 (5.8%) were called active. Inconclusive results, whose numbers are uncertain, are shown with a selection of clear calls. Calls follow the shape of the dose curve; as a rule, active = well fitted inhibition curve with a large enough effect; inconclusive = small, poorly fitted or top-dose-only effect, or another doubt; inactive = no such curve, though single readings can be large or run the other way. Potencies of inconclusive entries are left out as doubtful fits.
# Assay: Primary qHTS for delayed death inhibitors of the malarial parasite plastid, 48 hour incubation
# Settings: P. falciparum luciferase growth in erythrocytes; series mostly up to 28.7 µM
# In short: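 In quantitative HTS format, infected erythrocytes bearing luciferase-reporter parasites were treated for a single generation at 37 C. Luminescence after adding detection reagent served as the growth measure.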
# Potency is read from the fitted curve at half-maximal effect; tags tell the direction and shape of the fitted curve.
row,Structure (SMILES),Potency
1,CCC(=O)OCCNc1cc(SCCC(=O)OC)c2nonc2c1[N+](=O)[O-],"inconclusive [inhibitor, partial curve, poor fit]"
2,CCCNC(=O)c1oc2ccc3c(c2c1C)C(O)CC(C)(C)O3 (stereo not given),inactive
3,CN(c1ccc(C(=O)NCc2cccs2)cc1)S(=O)(=O)c1ccccc1,"inconclusive [inhibitor, single point]"
4,CCN(CC)Cc1c(O)ccc2c(=O)c(Oc3ccccc3OC)c(C)oc12,"inconclusive [inhibitor, single point]"
5,OCCC1CN(Cc2ccccn2)CCN1C1CCCC1 (stereo not given),"inconclusive [inhibitor, partial curve, poor fit]"
6,O=C(c1cc2ccccc2o1)N1CCN(C/C=C/c2ccccc2)CC1,inactive
7,Cc1ccc(C)n1-c1ccc(C(=O)NC2CCN(Cc3ccccc3)CC2)cc1,"inconclusive [inhibitor, single point]"
8,CC(C)=C1SC(N2CCN(c3ccc(C)cc3)CC2)=NC1=O,inactive
9,O=C(OCc1ccc(F)cc1)c1cc(=O)c2ccccc2o1,inactive
10,COc1ccc2ccc(OCC(=O)Nc3cc(C)on3)cc2c1,active: 11.7 µM
11,COc1ccc(CN(CC2CCC(C(=O)O)CC2)C(=S)Nc2ccc(C)c(Cl)c2)cc1 (stereo not given),"inconclusive [inhibitor, single point]"
12,COc1ccccc1-n1nnnc1SCC(=O)N1CCCC1=O,inactive
13,COc1cc([N+](=O)[O-])cc(/C=N/N(CCC#N)C(C)=O)c1O,inactive
14,Cc1nn2c(COc3ccc(NC(=O)c4ccccc4Cl)cc3)nnc2c2ccccc12,active: 11.7 µM
15,Cc1cc(Cl)ccc1NC(=S)N(CCCN1CCOCC1)Cc1cccs1,"inconclusive [inhibitor, single point]"
16,C#CCOCCOCCOCCNc1nc(N2CCN(C(=O)[C@H]([C@@H](C)CC)n3cc([C@@H](N)CO)nn3)CC2)nc(N2CCN(C(=O)[C@H]([C@@H](C)CC)n3cc([C@@H](N)Cc4ccc(O)cc4)nn3)CC2)n1,"inconclusive [inhibitor, single point]"
17,CCOc1ccccc1NC(=O)C1CCCN1S(=O)(=O)c1ccccc1C(F)(F)F (stereo not given),active: 8.28 µM
18,CCCCC(c1nnnn1C1CCCC1)N1CCN(C(=O)c2ccco2)CC1 (stereo not given),active: 2.08 µM
19,O=C(CCNC(=O)c1ccc([N+](=O)[O-])cc1)NC1CCCCCC1,inactive
20,CNC(=O)c1ccsc1NC(=O)CCS(=O)(=O)c1ccc(F)cc1,inactive
21,O=C(Nc1ccc(-c2cc3ccccc3oc2=O)c(Cl)c1)c1cccnc1,inactive
22,CC(C)Oc1ccc(C2CC(=O)NC3=C2C(=O)CCC3)cc1 (stereo not given),"inconclusive [inhibitor, partial curve, poor fit]"
23,COc1cc(NC(=O)c2cc(OC)c(OC)c(OC)c2)c(OC)cc1NC(=O)CN1CCCCC1,"inconclusive [inhibitor, single point]"
24,CC(OC(=O)CNS(=O)(=O)c1ccc2ccccc2c1)C(=O)N(C)c1ccccc1 (stereo not given),"inconclusive [inhibitor, full curve, poor fit]"

row,Structure (SMILES),Potency
1,CC(=O)c1ccc(N2CCN(C(=O)c3ccc(OCc4c(C)noc4C)cc3)CC2)cc1,"inconclusive [inhibitor, partial curve, poor fit]"
2,O=C(N/N=C/c1ccco1)c1cc(-c2ccccc2)n[nH]1,"inconclusive [inhibitor, single point]"
3,CCS(=O)(=O)Nc1cccc(C2=NN(S(=O)(=O)c3ccc(C)cc3)C(c3ccco3)C2)c1 (stereo not given),"inconclusive [inhibitor, partial curve]"
4,CN(C)CCN(C)Cc1ccc2c(c1)Cc1ccccc1-2,"inconclusive [inhibitor, single point]"
5,COc1ccc(S(=O)(=O)NCC(=O)N(CC(=O)NCc2ccco2)C2CCCC2)cc1,inactive
6,O=C(NC1(C(F)(F)F)Oc2ccccc2O1)N1CCC2(CC1)OCCO2,inactive
7,Cc1nc(NC(=S)NC(=O)c2cccs2)ccc1Br,inactive
8,COc1ccc(Cc2nnc(NC(=O)c3ccc(OC)c(OC)c3)s2)cc1,inactive
9,Clc1ccc(C(c2nnnn2C2CCCCC2)N(Cc2cccnc2)Cc2ccco2)cc1 (stereo not given),"inconclusive [inhibitor, full curve]"
10,N#C/C(=C\c1ccc(Cl)s1)C(=O)N1CCN(c2ccccc2)CC1,inactive
11,O=C(CN1C(=O)c2ccccc2S1(=O)=O)NCCSCc1c(F)cccc1Cl,inactive
12,CCN1C(=O)[C@@H]2[C@@H](c3ccc(SC4CCCCC4)cc3)N3CCC[C@@]3(C(=O)OC)[C@@H]2C1=O,active: 13.1 µM
13,COc1ccccc1-c1ccc(SCc2ccc([N+](=O)[O-])cc2)nn1,"inconclusive [inhibitor, full curve, poor fit]"
14,O=C(Cn1cnc2cc([N+](=O)[O-])ccc2c1=O)Nc1cccc2ccccc12,"inconclusive [inhibitor, single point]"
15,O=C(c1oc2ccccc2c1CSCc1ccccc1)N1CCN(c2ncccn2)CC1,"inconclusive [inhibitor, partial curve, poor fit]"
16,COC(=O)c1ccccc1NC(=O)CSc1nc(N)cc(=O)[nH]1,inactive
17,Nc1nonc1-n1nnc(C(=O)N/N=C/c2cc(Br)ccc2O)c1CSC1=NCCS1,"inconclusive [inhibitor, single point]"
18,CCc1ccc(Nc2nnc(SCC(=O)Nc3sccc3C(N)=O)s2)cc1,"inconclusive [inhibitor, single point]"
19,CCOC(=O)c1cc(Br)c(=O)n2ccccc12,"inconclusive [inhibitor, partial curve, poor fit]"
20,COc1ccc(CNC(=O)CN(c2ccc(OC)cc2)S(=O)(=O)c2c(C)nn(C)c2C)cc1,"inconclusive [inhibitor, single point]"
21,Cc1ccc(/C=C2/SC(=S)N(CCC(=O)N3CCOCC3)C2=O)cc1,"inconclusive [inhibitor, single point]"
22,CCOC(=O)c1ccc(NC(=O)N2CCN(c3cccc(OC)c3)CC2)cc1,"inconclusive [inhibitor, partial curve]"
23,Cc1nn(Cc2ccccc2Cl)c(Cl)c1C(=O)OC(C(=O)NC(N)=O)C(C)C (stereo not given),"inconclusive [inhibitor, partial curve, poor fit]"
24,CCOC(=O)N1CCC(N2Cc3cccc(C(=O)Nc4cccc(F)c4)c3C2=O)CC1,"inconclusive [inhibitor, partial curve, poor fit]"

row,Structure (SMILES),Potency
1,COc1cc2c(C(=O)N3CCN(C)CC3)c(C)n(-c3ccccc3)c2cc1Br,active: 4.65 µM
2,Cc1cc(C)n2nc(SCC(=O)c3ccc[nH]3)nc2n1,"inconclusive [inhibitor, single point]"
3,O=C(C1CC(=O)N(C2CCCCC2)C1)N1CCN(c2ccccc2)CC1 (stereo not given),"inconclusive [inhibitor, single point]"
4,Cc1ccc(NC(=O)CCc2nnc3ccc(N4CCC5(CC4)OCCO5)nn23)cc1F,"inconclusive [inhibitor, partial curve, poor fit]"
5,COc1ccc(CCNC(=O)c2ccc(N3CCCCS3(=O)=O)cc2)cc1OC,"inconclusive [inhibitor, partial curve, poor fit]"
6,COc1ccc(S(=O)(=O)N2CCC(C(=O)NCc3cccs3)CC2)cc1,inactive
7,CCOC(=O)c1cc(NC(=O)N2CCCc3ccccc32)c(C)nc1C,inactive
8,CCOc1ccccc1OCC(=O)Nc1ccc(N2CCCCC2)cc1,"inconclusive [inhibitor, single point]"
9,CN(CC(=O)N1CCc2ccccc21)S(=O)(=O)c1ccc(Cl)cc1,inactive
10,CCc1cccc(NC(=O)Cn2c(-c3ccccc3)cc(C(C)=O)c2C)c1,"inconclusive [inhibitor, single point]"
11,CCOC(=O)N1CCN(Cc2nc3c(c(=O)[nH]c(=O)n3C)n2CCCc2ccccc2)CC1,"inconclusive [inhibitor, partial curve, poor fit]"
12,CC1(C)CC2CC(C)(CN2C(=O)COC(=O)CNC(=O)c2ccc(Cl)c(Cl)c2)C1 (stereo not given),inactive
13,CC(C)=CC1C(C(=O)OCc2coc(Cc3ccccc3)c2)C1(C)C (stereo not given),"inconclusive [inhibitor, single point]"
14,C[n+]1cccc2cccc([O-])c21,active: 3.29 µM
15,COc1ccc(C(=O)N(C)Cc2ccccc2)cc1Br,inactive
16,Cc1cc(C(=O)N2CCN(S(C)(=O)=O)CC2)sc1-c1ccccc1,inactive
17,c1cncc(-c2noc(C34CC5CC(CC(C5)C3)C4)n2)c1,"inconclusive [inhibitor, single point]"
18,CC1Oc2ccccc2N(CC(=O)Nc2ccccc2F)C1=O (stereo not given),inactive
19,Cc1nc2ccccc2c(=O)n1/N=C/c1cc(Br)ccc1O,"inconclusive [inhibitor, single point]"
20,O=C(NCC1(N2CCCCC2)CCCCC1)c1cccc(NS(=O)(=O)c2ccccc2)c1,"inconclusive [inhibitor, single point]"
21,Cc1nc2ccc(C(=O)N3c4ccccc4CC3C)cc2s1 (stereo not given),"inconclusive [inhibitor, partial curve, poor fit]"
22,Cc1ccc(C(=O)OC(C)C(=O)Nc2ccc(Cl)cn2)s1 (stereo not given),inactive
